# Experimental data: article PMC10668032
# This is one part of the list. At the low end of the ranking the order means little.
# Biological target: SIX1-Q177R homeodomain (UniProt Q15475)
# Assay: universal protein binding microarray
# Settings: Universal all-10-mer PBM (8x60K, AMADID 030236), 300 nM GST-tagged protein, Alexa Fluor 488 anti-GST; buffer, salt, pH and temperature not stated; high values mean tight binding; most listed sequences are background and not binding sites; double strand, one strand shown
row,Sequence,binding signal
1,CTTTCGGA,-0.139 E-score
2,CAACGTTC,-0.172 E-score
3,AATCTCCC,0.0343 E-score
4,CGCGTCTC,0.039 E-score
5,CATAGGAG,-0.121 E-score
6,ATTGACGA,-0.0182 E-score
7,CCTTGTCC,-0.0305 E-score
8,CGCCCGGA,0.00537 E-score
9,CACCTTCA,0.241 E-score
10,AAAGCTGG,-0.241 E-score
11,ACGCCTCT,0.0685 E-score
12,CACGATAC,0.335 E-score
13,ACGCGCAG,0.175 E-score
14,AATGGGCA,-0.122 E-score
15,ATCAGTCG,-0.188 E-score
16,GCTAGGTA,0.0331 E-score
17,CATTTAAC,-0.037 E-score
18,CCCCCATC,0.0764 E-score
19,CCCTACAA,0.0828 E-score
20,ATTGTTTC,-0.17 E-score
21,GGGCAACA,0.094 E-score
22,CGTATAAG,-0.125 E-score

row,Sequence,binding signal
1,CGGTCGTC,-0.116 E-score
2,CATACGAC,-0.0328 E-score
3,GCACTTCA,0.0839 E-score
4,CTTGTTGA,-0.00195 E-score
5,CGGCTTAA,-0.0226 E-score
6,CGGTGAAA,-0.0361 E-score
7,CTCGTCGC,-0.276 E-score
8,ACCGGCGG,0.126 E-score
9,ACCTGAGT,0.0135 E-score
10,GGAAATAA,-0.215 E-score
11,ATGATCCA,-0.011 E-score
12,AACGAACC,-0.0406 E-score
13,GGTTGGCA,0.0237 E-score
14,AATAATGC,0.0393 E-score
15,CACACTTC,0.205 E-score
16,CCGCAGGA,-0.115 E-score
17,GTGTTGTA,0.389 E-score
18,CGCAAGCG,-0.0974 E-score
19,TATTAAGA,-0.0906 E-score
20,AACTCCAA,0.0589 E-score
21,CCACGGAG,0.102 E-score
22,ACGAAGCA,-0.0672 E-score

row,Sequence,binding signal
1,ATACAAGA,-0.206 E-score
2,AAAATTTC,-0.168 E-score
3,GACATCAC,-0.121 E-score
4,GGAGAACC,0.0409 E-score
5,CTCCTGTA,-0.0426 E-score
6,ACTGGACC,-0.161 E-score
7,CATCGGTC,-0.189 E-score
8,CTGACGCC,0.185 E-score
9,ACGGTACC,-0.0615 E-score
10,AACGGCAT,-0.149 E-score
11,AAGTGTGA,0.188 E-score
12,CGCAGCGC,-0.192 E-score
13,AAGACTGG,0.0509 E-score
14,CCGTACCC,0.158 E-score
15,TAGTCTCA,-0.227 E-score
16,CTCACTTC,-0.0954 E-score
17,TAGGGAGA,-0.00983 E-score
18,CGTGGAAC,-0.119 E-score
19,AGTTAATC,-0.0686 E-score
20,GCAGATAA,-0.125 E-score
21,ATGACATC,-0.154 E-score
22,CTAGTTGC,-0.24 E-score

row,Sequence,binding signal
1,ATTGGAGC,0.0339 E-score
2,CACATGGC,-0.155 E-score
3,GGTTGATA,0.0259 E-score
4,AATGTCCT,-0.0227 E-score
5,TCTTTGAA,-0.262 E-score
6,ACGCTCAG,0.143 E-score
7,AGCAACTA,-0.136 E-score
8,GGCCTCCC,-0.204 E-score
9,AAATACAA,-0.114 E-score
10,ACATAGCT,-0.216 E-score
11,ACCTTCGC,-0.0318 E-score
12,AATGTCCG,-0.177 E-score
13,ACTAATTC,-0.0618 E-score
14,TTGACCAA,-0.0546 E-score
15,ATGAAGTA,-0.0128 E-score
16,CTGTCAGA,0.0241 E-score
17,CTATCGAG,-0.0352 E-score
18,AGTGAACC,-0.0634 E-score
19,AATTTCAA,-0.159 E-score
20,TACAGTAA,0.126 E-score
21,CCGCCTCG,-0.0193 E-score
22,ACGCAACC,0.00098 E-score

row,Sequence,binding signal
1,CACAATTA,-0.00716 E-score
2,AAGCGCGA,0.074 E-score
3,AGTAATCA,0.0946 E-score
4,CCTAGGAA,-0.0905 E-score
5,CAGTCCAG,-0.0569 E-score
6,ACCGAGTC,0.0476 E-score
7,CGTCTCAA,0.00928 E-score
8,CCTTTACC,0.0699 E-score
9,CGTCACAA,0.0469 E-score
10,CGCGCTCC,-0.00201 E-score
11,AGTCATAC,-0.0579 E-score
12,TCGTCAAA,-0.027 E-score
13,AGCATCCC,-0.203 E-score
14,AGATGAAT,-0.182 E-score
15,AACGAAAT,-0.312 E-score
16,CCATTCCG,-0.14 E-score
17,GGTAGAGA,-0.061 E-score
18,GAACGGTA,-0.0771 E-score
19,AGGTTTAA,0.0833 E-score
20,GAACCCAA,-0.0198 E-score
21,GAGGTTGC,-0.0848 E-score
